Measurements: the RNAGym collection of RNA variant scans (doi:10.1073/pnas.2313332121)
Variants at the background level are over-represented here.

B1: TPR 5TU (parent)
chain: GGAUCUUCUCGAUCUAACAAAAAAGACAAAUCUGCCACAAAGCUUGAGAGCAUCUUCGGAUGCAGAGGCGGCAGCCUUCGGUGGCGCGAUAGCGCCAACGUUCUCAACUAUGACACGCAAAACGCGUGCUCCGUUGAAUGGAGUUUAUCAUG

Variants of: B1
Experiment: polymerase ribozyme fitness, log enrichment relative to wild type (log ratio); higher = more active; in vitro selection for triplet polymerase activity
Method in brief: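 Mutant libraries of each subunit of a heterodimeric triplet polymerase ribozyme were built by PCR and transcribed. Each library went through one round of in vitro selection in triplicate: annealing with biotinylated primer, partner subunit and triplets, frozen incubation at −7 °C, gel excision of extended constructs, streptavidin-bead capture and RT-PCR. Input and output libraries were Illumina-sequenced; only genotypes with ≥10 input reads and ≥1 read per output were kept. Fitness is log2(genotype enrichment/wild-type enrichment), using inverse-variance-weighted replicate averages.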

Polymerase ribozyme fitness (log ratio), ≤ -4.2:
GGAUCUUCUCGAUCUAACAAAAAAGACAAAUCUGCCACAAUGCUUGAGAGCAUCUUCGGAUGCAGCGGCGGCAGCCUUCGGUGGCGCAAUAGCGCCAACGUUCUCAACUAUGCCACGCAAAACGCGUGCUCCGUUGAAUGGAAUUCAUCAUG [A41U A66C G88A A113C G143A U146C]
GGAUCUUCUCGAUCUAACAAAAAAGACAAAUCUGCCACAAUGCUUGAGAGCAUCUUCGGAUGCAGUGGCGGCAGCCUUCGGUGGCGCGAUAGCGCCAACGUUCUCAACUAUGACACGCAAAACGCGUGCUCCGUUGAAUGGAGUUUAUCAUG [A41U A66U]
GGAUCUUCUCGAUCUAACAAAAAAGACAAAUCUGCCACAAUGAUUGAGAGCAUCUUCGGAUACCGAGGCGGCAGCCUUUAGUGUCGCGAUAGCGCCAACGUUCUCAACUAUGACACGCAAAACCCGUGCUCCGUUGAAGGGAGUUUAUCAUG [A41U C43A G62A A64C C79U G80A G84U G124C U139G]
GGAUCUUCUCGAUCUAACAAAAAAGACAAAUCUGCCACAAUGCUUGAGAGCAUUUUCGGAUGUAGAGGCGGCAGCCUUCGGAGGCGCGAUAGCGGCAACGUUCUCAACUAUGACUCGCAAAACGCGUGCUCCGUUGAAUGGAGUUUAUCAUG [A41U C54U C63U U82A C95G A115U]
GGAUCUUCUCGAUCUAACAAAAAAGACAAAUCUGCCACAAUGCUUGAGAGCAUCUUGGGAUGCAGAGGCGGCAGCCUUCGGUGGCGCGAUGGCGCCAAAGUUCUCAACUAUGACUCGCAAAACGCGUGCUCCGUUGAAUGGAGUUUAUCAUG [A41U C57G A91G C99A A115U]
GGAUCUUCUCGAUCUAACAAAAAAGACAAAUCUGCCACAAUGCUUGAGAGCAUCUUCGGAUGGAGAGGCGGCAGCCUUCGGUGGAGCGAUAGCGCCAACGUUCUCAACUAUGACACGCAAAACGCGUGCUCCGUUGAAUGGAGUUUAUCAUU [A41U C63G C85A G152U]
GGAUCUUCUCGAUCUAACAAAAAAGACAAAUCUGCCACAAUGCUUGAGAGCAUCUUCGGAUGCAGAGGCGGGAGCCUUCGGUGGCGCGAUAGCGCUAACGUUCUCAACUAUGACACGCAAAACGCGUGCUCCGUUGAAUGGAGUUUAUCAUG [A41U C72G C96U]
GGAUCUUCUCGAUCUAACAAAAAAGACAAAUCUGCCACAAUGCUUGAGAGCAUCUUCGGAUGCAGAGGCGGCAGCCUUCGGUGGCGGGAUAGCGCCAACGUUCUCAACUAUGACACGCAAAACGCGUGCUCCGUUGAAUGGAGUUUAUCAUG [A41U C87G]
GGAUCUUCUCGAUCUAACAAAAAAGACAAAUCUGCCACAAUGCUUGAGAGCAUCUUCGGAUGCAGAGGCGGCAGCCUUCGGUGGCGCGAUAGAGCCAACGUUCUCAACUAUGACACGCAAAACGCGUGCUCCGAUGAAUGCAGUUUAUCAUG [A41U C93A U134A G141C]
GGAUCUUCUCGAUCUAACAAAAAAGACAAAUCUGCCACAAUGCUUGAGAGCAUCUUCGGAUGCAGAGGCGGCAGCCUUCGGUGGCGCGAUAGAGCCAACGUUCUCAACUAUGACACGCAAAACGCGUGCUCCGUUGAAAGGAGUUUAUCAUG [A41U C93A U139A]
GGAUCUUCUCGAUCUAACAAAAAAGACAAAUCUGCCACAAUGCUUGAGAGCAUCUUCGGAUGCAGAGGCGGCAGCCUUCGGUGGCGCGAUAGCGCCAACGUUGUCAACUAUGACACGCAAAACGCGUGCUCCGUUGCAUGGAGUUUACCAUG [A41U C103G A137C U148C]
GGAUCUUCUCGAUCUAACAAAAAAGACAAAUCUGCCACAAUACUUGAGAGCAUCUUCGGAUGCAGAGGCGGCAGCCUUCGGUGGAGCGAUAGCGCCAACGUUCUCAACUAUGACACGCAAAACGCUUGUUCCGUUGAAUGGAGUUUAUCAUG [A41U G42A C85A G126U C129U]
GGAUCUUCUCGAUCUAACAAAAAAGACAAAUCUGCCACAAUCCUUGAGAGCAUCUUCGGAUGCAGAGGUGGCAGCCUUCGGUGGGGCAAUAGCGCCAACGUUCUCAACUAUGAGACGCAAAACGCGUGCUCCGUUGAAUGGAGUUUAGCAUG [A41U G42C C69U C85G G88A C114G U148G]
GGAUCUUCUCGAUCUAACAAAAAAGACAAAUCUGCCACAAUUCUUGAGCGCAUCUUCGGAUGCAGAGACGGCAGCCUUCGGUGGCGCGAUAGCGCCAACGUUCUCAACUAUGACACGCAAAACGCGUGCUCCGUUGAAUGGAGUUUAUCAUG [A41U G42U A49C G68A]
GGAUCUUCUCGAUCUAACAAAAAAGACAAAUCUGCCACAAUUCUUGAGAGCAUCUUCGGAGGCAGAGGCGGCAGCCUUGGGUGGCGCGACAGCGCCAGCGUUCUCAACUAUGACACGCAAAACGCGUGCUCCGUUGAAUCAAGUUUAUCAUG [A41U G42U U61G C79G U90C A98G G140C G141A]
GGAUCUUCUCGAUCUAACAAAAAAGACAAAUCUGCCACAAUGCUUGAGACCUUCUUCGGAUGCAGAGGCGGCAGACUUCGGUGGUGCGAUAGCGCCAACGUUCUCAACUAUGACACGCAAAACGCGUGCUCCGUUGAAUGGAGUUUAUCAUG [A41U G50C A52U C75A C85U]
GGAUCUUCUCGAUCUAACAAAAAAGACAAAUCUGCCACAAUGCUUGAGAGCAUCUUCAGAUGCAGAGGCGGCAUCCUUCGGUGGCGCGAUAGCGCCAACGUUCUCAAAUAUGACACGCAGAACGCGUGCUCCGUUGAAUGAAGUUUAUCAUG [A41U G58A G74U C108A A120G G141A]
GGAUCUUCUCGAUCUAACAAAAAAGACAAAUCUGCCACAAUGCUUGAGAGCAUCUUCCGAUGCAGAGGCGGCAGCCUUCGGUGGCGCGAUGGCCCCAACGUUCUCAAUUAUGACACGCAAAACGCGCGCUCCGUUGAAUGGAGUUUAUCAUG [A41U G58C A91G G94C C108U U127C]
GGAUCUUCUCGAUCUAACAAAAAAGACAAAUCUGCCACAAUGCUUGAGAGCAUCUUCCGAUGCAGAGGCGGCAGCCUUCGGUGGCGCGAUAGCGCCAACGUUCUCAACUAUGACACGCAAAACUCGUUCUCCGUUGAAUGGAGUUUUGCAUG [A41U G58C G124U G128U A147U U148G]
